Test results taken from the supplement of paper PMC12632987.
Over roughly 4,500 sequences, “median log2 fold change of GCK-ALFA target abundance (FLAG IP / Myc IP barcode read proportion)” has its median near 0.078; the lowest 2% begin near -0.6. This is one part of the list.

B1: GBRAP_166_4951 (protein)
chain: AQEAIRAALAARIEELAAQMRTADAEERLALYAEIAEALAEAREAGLSSADLLALATRALRLVKEAGGSVRQLLGVLFMFVDLTEEERDELAAAADAVEA
B2: GBRAP_26_5492 (protein)
chain: FVEKVIKELEKRTREILKDESEDLRAAVIAEAIDLLLEAAEEFEKNLDDEEKQEKAIKEATEELRKELEDFGLSEEKIKKLVEALREAMEAIKAALQAER
B3: GBRAP_195_5406 (protein)
chain: KKVESKVLRITASDTEEEILEKIEKIVREVKEKTNADLVLVVARDPSVPEETVLKAVKEAEKKYPSIKITVEIFDDISLPLETLERFAEMERLNLEEEKE
B4: GBRAP_48_5837 (protein)
chain: SEEKKEKAIEEILKIIEETAKLLEEAEKEGLSEAAFEAILIDAAEEMKEVLDKYLGLGEAWDALPLEERLKIVRELVETYREKGREAAKKKIREVIEELE
B5: GBRAP_80_6790 (protein)
chain: AEERLKKHLEEIAKLDPEIAKKVEEIIKIAKSLGVSKETLAEFAEAIAKLLKVDKEKAREIVEETLEELEEEKEEGNTANAEATLRVHAGEALLEVEELE
B6: GBRAP_57_6460 (protein)
chain: MSPLEKAIKHFEKAIALVKAGAPLEEILAEVQKGLDHLDAATLRDIALLLDPEAPADMSAEEAKAHILELVRRALEEEGREAALRMLELMLGQVEMDALE
B7: GBRAP_166_4987 (protein)
chain: MQEEIVEKTKKEIDELAEKMKTANKEEQTELIIEMAEKIAEAKKAGISEEKLLELVEYALKLVKELGLSVKVAAGIIEEVAEFDEEMREKIRKIAEKVEK
B8: GBRAP_78_6681 (protein)
chain: KVEEELEKAIEELNKAAKLLSKMKTEEALDILGKVIDAASTVEEAYFGEANLEDLEKALKTAEEALKEVEKIDTEEAKKVAEELKKAIEYIKKAIELLKK
B9: GBRAP_52_6245 (protein)
chain: MRERLRALAEELLALVKAGRLEEARALAKRIAEELDEEELRLFIEEFARLAAEARREDIDAVWRATEILAEALEAAGKPEILVDDLEAETARAAVEVEAR
B10: GBRAP_9_7141 (protein)
chain: MEEVLKKLIELAEEAKEDALKVAPEEKKPIVEKSFNEFIEELKKLLEDKNTTKEEIKETVEKGIKKIKETFKKNFDPETYKQLEAIILTFEVEAEEIIEE
B11: GBRAP_52_6222 (protein)
chain: SAEEARALAEEIVRTVREEGVEAAVARLKELAAAHSPELVAAVLAEIVRLAEGESLETAEALLDAVLAAEDALEAAGVSEADVSDAIAGLAAVAVKLEAA
B12: GBRAP_35_5617 (protein)
chain: EIDEETTEMLVAVIEDLTLAVPDLPVETLVQMANQLIESARELGKELKDKPEQLERLAKALEKLRDAIEKHHGDDPLAQETLKKIEKAIEELKKAAKEAK
B13: GBRAP_160_4405 (protein)
chain: SESFEKLKKEVKEIFEETLKLIEGQTPEEQKVIVRVSLGEILLLAFENEEVSDEQEEELAKILDEAEKRIEKAIEEGEEAVKEEIKEAKEKVLKFIESLK
B14: GBRAP_160_4573 (protein)
chain: SENLEKLIKEIREITDEAVEFLEGQSFAERLAVVRVAVGDILLLLEENEEVSEEVLEKADEIGDELIATIEANPDLTAAEIQALLREATEKIIKLIKEEE
B15: GBRAP_125_3131 (protein)
chain: SMEEILENLAVFLKALGFSEDDIEEAVEEARKHGIKGTMYAIALALGEEELAELVEKLTEEEVKEILKKLKEELEKNPDLTPEEVIELFKKLAEEVLKSR
B16: GBRAP_78_6645 (protein)
chain: EIEELIDKAIEHLSKAAKLAKQLPEDQRNELLYHIVEAESYLLLSEEEGFDLELLEKALEELEKAKELVKKLDSPVAPQILEELEKAIELVKKAIKLKKE
B17: GBRAP_9_7116 (protein)
chain: MAVDKATLAAAVADAEASLKALAADLEDPAVAAIVDAAIAEMKALVAVEGITLEELEERLDAIVAAATARAKAEVSPEIANALEAELLTEREAILEAVEA
B18: GBRAP_52_6043 (protein)
chain: MEEEMRKLAEEILALYKAGKREEAKALIKEVVETKSEEELKLLGEKLAELAKEAPPEELDYYMEAAFDLADALEEAGYDEVLADDLEARVAAAAVENLKK
B19: GBRAP_166_4947 (protein)
chain: SLEEIVEETRKFIEELAEKMKNANPEERLDIYAEIAEKIREAKEKGVPKEEILELIRLALELTKEAGGDVDQLVGVLHMFVDLSEEERDEVEKIAEEVKK
B20: GBRAP_160_4129 (protein)
chain: KEELKKLIEEIREITEEAIKMIEGETVENAKVIAKVALGEIIMLAESNEAVSEELEEKIDEIADEAEEYLEENPDLTVEEIKELLREAAEKVIELVKEEI
B21: GBRAP_80_6816 (protein)
chain: MEEEIEKALKEIEKIDPELAKKVREAVEIAKELGVPEELLAALVRAIAELAKIDPEKARKIVEELLKRLKEAKAAGDLEAAREAIEDATAEALEAVMDLE
B22: GBRAP_14_3861 (protein)
chain: MEALIKAVEETAESTKELVAEIAPEHAEEISAKVEELAKRIIEKIKEEDLDIEEVEELVDEAAAELAAWLAAHGYLSPTEIAALRAHILNEALLRLEEIE
B23: GBRAP_166_4965 (protein)
chain: MEEEIVEEFKKYLEELKEKMKEANYEEKLELLAEAAEKLREAKEAGISDEKLRELIRYLIELAREVGLSDSDVYGALSILADLDEEEIDILEEALEEVRK
B24: GBRAP_160_4284 (protein)
chain: EEEAEKLKEEVEEIFEEAKEMMKGEDQANVVTIVRVAGGEVAMALFESPIATDELVDKALEIMDELAETIAANPDLTDEEREELLEEAREKILKAIEESA
B25: GBRAP_11_2915 (protein)
chain: KKEALKEIAKLAEELVKALKELKKKGVDDKELQEKALKLAEELLKLVKETMDEESADLAKELVKALKEAKKDPKNAEQYVNEALAIAEVLLGQALLEIEE
B26: GBRAP_128_3217 (protein)
chain: STEEVVKQVEELLEKIKKADEEEAKKIAKELAELILSSSEEAAEAAAEKIEKLAPELSEEDLEILMKEFVEAAKKTDTPVSLVLLDIAVELGEEILEKEE
B27: GBRAP_83_6889 (protein)
chain: AEEITVGAAADHVAEAVAAAGDLAKEEGYDVTLDLAVTPESVPALEAGLDALAAAGVKVDLRVTVVAPTAEEAEATAARIRAHAAASGAARSLTVETEVV
B28: GBRAP_55_6429 (protein)
chain: SEDEEIEELIAETNTDILLAHADDPEALRAAAEAIAKSVEKVKLIIRREDIEDEESAERVVRAVRVMAEVAKELGKELEVTYIDLPEELVRRIEEAIAAV
B29: GBRAP_128_3308 (protein)
chain: MNEELLKKAEELLKALEKADEATAAELTREIAALLSEASPEEQEKIAELFEKALKKLSAAKLDVVADTLRALIPEADPATAEVLADLEVEALNEAEEKEE

Each binder was assayed against GABARAP, O95166 (assay: median log2 fold change of GCK-ALFA target abundance (FLAG IP / Myc IP barcode read proportion) (log2 ratio); each designed protein is fused to an ALFA-tag nanobody in HEK293 cells to bring the named protein to FLAG-tagged glucokinase (GCK); Myc marks an untargeted standard; higher = target protein stabilised (more abundant)). Details: target protein: 3xFLAG-MCP-GCK-ALFA reporter; HEK293 landing pad (RPLP).
Chain of GABARAP, O95166 (O95166 whole entry, the tested form may be a part): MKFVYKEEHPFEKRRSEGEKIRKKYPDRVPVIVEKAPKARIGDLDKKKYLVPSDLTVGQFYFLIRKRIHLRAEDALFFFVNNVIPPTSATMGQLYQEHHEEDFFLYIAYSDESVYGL
Procedure: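 LABEL-seq trans screen in HEK293 landing-pad cells. Each de novo designed 100-aa effector handle, binding the indicated effector (E3 ligase, DUB or autophagy protein), is fused to a constant NbALFA target handle and induced with 2 ug/mL doxycycline. A FLAG-MCP-GCK-ALFA target and a Myc-MCP standard reporter were transfected, and after 48 h circRNA barcodes were recovered by anti-FLAG and anti-Myc IP and sequenced. The value is the median across barcodes (at least 3 per design) of log2(FLAG/Myc read-proportion ratio), with the two transfection replicates pooled. Negative values mean degradation and positive values mean stabilisation of the target.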
With B1 the “median log2 fold change” value was 0.055.
For B2, the “median log2 fold change” value was 0.122.
With B3 the “median log2 fold change” value was 0.233.
B4 was tested, and the “median log2 fold change” value was 0.133.
In the case of B5, the “median log2 fold change” value is reported as 0.101.
For B6, the “median log2 fold change” value was 0.278.
In the case of B7, the “median log2 fold change” value is reported as 0.341.
For B8, the “median log2 fold change” value was 0.367.
With B9 the “median log2 fold change” value was 0.122.
In the case of B10, the “median log2 fold change” value is reported as 0.328.
With B11 the “median log2 fold change” value was 0.141.
With B12 the “median log2 fold change” value was 0.243.
For B13, the “median log2 fold change” value was -0.218.
In the case of B14, the “median log2 fold change” value is reported as -0.0191.
For B15, the “median log2 fold change” value was 0.0523.
With B16 the “median log2 fold change” value was -0.00333.
With B17 the “median log2 fold change” value was 0.184.
With B18 the “median log2 fold change” value was -0.047.
B19 was tested, and the “median log2 fold change” value was 0.151.
For B20, the “median log2 fold change” value was 0.0536.
With B21 the “median log2 fold change” value was 0.128.
With B22 the “median log2 fold change” value was 0.203.
In the case of B23, the “median log2 fold change” value is reported as 0.00611.
With B24 the “median log2 fold change” value was -0.462.
For B25, the “median log2 fold change” value was 0.267.
In the case of B26, the “median log2 fold change” value is reported as -0.19.
In the case of B27, the “median log2 fold change” value is reported as 0.0536.
In the case of B28, the “median log2 fold change” value is reported as -0.325.
With B29 the “median log2 fold change” value was 0.254.
